Data: the BET-seq Pho4 binding data (Le et al. 2018)
The other results are listed elsewhere or left out. The energies were worked out here from pooled read counts, against the library average; single values are noisy.

Target: T1, Pho4 (S. cerevisiae) (UniProt P07270)
T1 sequence: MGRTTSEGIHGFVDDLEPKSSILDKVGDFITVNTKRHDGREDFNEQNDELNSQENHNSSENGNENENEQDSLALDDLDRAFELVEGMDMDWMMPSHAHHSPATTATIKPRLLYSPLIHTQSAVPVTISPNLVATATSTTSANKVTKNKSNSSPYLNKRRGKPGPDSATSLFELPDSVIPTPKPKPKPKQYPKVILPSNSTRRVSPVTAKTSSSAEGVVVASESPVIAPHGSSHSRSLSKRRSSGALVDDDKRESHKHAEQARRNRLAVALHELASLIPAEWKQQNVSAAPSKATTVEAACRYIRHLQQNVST
Assay: relative binding free energy (BET-seq); higher = weaker binding
Conditions: reference: library average

Relative binding free energy, 0.06 kcal/mol:
TGAGGCACGTGACGGG
TACTGCACGTGTGGTC
GGAGACACGTGGATAG
TAGTACACGTGCGAGG
TGATACACGTGTGGGT

Relative binding free energy, 0.32 kcal/mol:
ATGGTCACGTGAGTCA
ATTTTCACGTGAACGT
GAAGTCACGTGAGATT

Relative binding free energy, -0.03 kcal/mol:
GCCGGCACGTGCGGGT
AGTGTCACGTGCTCTG
CATTGCACGTGGTTGT
CAATGCACGTGTGTGT
TAGGTCACGTGCTGTG
TGGGACACGTGGCGGA

Relative binding free energy, 0.02 kcal/mol:
TACAGCACGTGGAGGG
GCATGCACGTGTGTGG
TAGTGCACGTGTTTAG

Relative binding free energy, 0.05 kcal/mol:
TCGGGCACGTGATGGG
AGATTCACGTGTATTG
TGGTCCACGTGTTTTG
TTTAACACGTGTGAGA

Relative binding free energy, 0.2 kcal/mol:
GTGTACACGTGTGAAG
TGGGTCACGTGACACG
TGTGGCACGTGAGATC
TGTTACACGTGGCGTG
TCGTTCACGTGTTATT
AGGTACACGTGAAGTG

Relative binding free energy, 0.33 kcal/mol:
TCGATCACGTGAAGGT
GCGTTCACGTGCGGGT
TATATCACGTGAGGAG

Relative binding free energy, -0.17 kcal/mol:
TGCCGCACGTGGGCGT

Relative binding free energy, -0.15 kcal/mol:
CAGTGCACGTGGGGTG
TGCTGCACGTGGTGTT
TCGAGCACGTGTGCGG
ATGGACACGTGGGGGT
TGGGACACGTGGGACT

Relative binding free energy, -0.19 kcal/mol:
ATGGGCACGTGTCAAG

Relative binding free energy, 0.4 kcal/mol:
GGTTTCACGTGAGCTG

Relative binding free energy, -0.08 kcal/mol:
TAGCACACGTGGGCGG
AGGAGCACGTGTGGAA
TGTGTCACGTGGGCGC
GAGGGCACGTGGTACG
AGGAGCACGTGTGCGA
GTGAGCACGTGTGGGT

Relative binding free energy, 0.01 kcal/mol:
GTTAGCACGTGTGGGG
GTCGTCACGTGGGGGT
GGAGACACGTGTGTTG

Relative binding free energy, 0.17 kcal/mol:
GAGGACACGTGATAGT
AGTTTCACGTGGCTTA
GGAAACACGTGTGGTC
ATTATCACGTGCAAGT

Relative binding free energy, -0.05 kcal/mol:
TGGGGCACGTGTTTCG
TTATACACGTGCTATG
TGGGGCACGTGTTAGT
CGTGCCACGTGGAGGT
TGTGTCACGTGTATAG

Relative binding free energy, 0.31 kcal/mol:
AAGTTCACGTGGTTAA

Relative binding free energy, 0.15 kcal/mol:
GCTTGCACGTGACGGG
TAGTGCACGTGATGTC

Relative binding free energy, 0.13 kcal/mol:
CGTGTCACGTGTGTAC
ACGATCACGTGTGGGT
TTCGTCACGTGGTGAT
TTTTCCACGTGATGAA
CTTTGCACGTGTCTGA
CTGGTCACGTGTATAG
TGTTACACGTGTTTGT

Relative binding free energy, -0.14 kcal/mol:
TCCAGCACGTGGTGGT
TAAGGCACGTGGATAG

Relative binding free energy, 0.41 kcal/mol:
TGATTCACGTGATGAG
GGGTCCACGTGAAGGC

Relative binding free energy, -0.06 kcal/mol:
TTGGGCACGTGTCTAA
ATCGGCACGTGTGTGT
TGGAGCACGTGCTTTA
ACAGGCACGTGATGGG
TATTACACGTGGTGCA

Relative binding free energy, -0.21 kcal/mol:
AGGGGCACGTGTGCGG

Relative binding free energy, 0.29 kcal/mol:
TTATTCACGTGGCATG
AGGGTCACGTGATGCC
TTGTTCACGTGTGTGA
GTTATCACGTGCTGAT

Relative binding free energy, 0.51 kcal/mol:
GGGTTCACGTGAGGGA

Relative binding free energy, -0.04 kcal/mol:
CGTTGCACGTGCTTTT
AGTAGCACGTGGACGT
GCTAGCACGTGTGTTT
GGGTACACGTGCGCGT
ATAGGCACGTGTCGGC
TTCTGCACGTGGAGGG
GAAGCCACGTGTTGGG

Relative binding free energy, 0.26 kcal/mol:
CGAATCACGTGTGGTA
TGGCTCACGTGGAGAT
GTATTCACGTGTTTAT
TTGCTCACGTGTAGTA
TGATTCACGTGGAGGG

Relative binding free energy, 0.37 kcal/mol:
GGAATCACGTGATGCT
TTGTTCACGTGGCTTT

Relative binding free energy, 0.25 kcal/mol:
ATGGTCACGTGATTAC
TGGAACACGTGAGTTG
ATTTTCACGTGGCAAG
GATTGCACGTGATGTT

Relative binding free energy, -0.12 kcal/mol:
GTTGGCACGTGGCATA
TTGTACACGTGGGGCT
CTTGGCACGTGTTATA
ATCAACACGTGGGGTA
ACTGTCACGTGGGTTG

Relative binding free energy, -0.02 kcal/mol:
TTTTGCACGTGTCTTA
GTGGCCACGTGGTTCG

Relative binding free energy, 0.34 kcal/mol:
GAATGCACGTGAGGAG
GTAAACACGTGAATGG

Relative binding free energy, 0.36 kcal/mol:
TTTTTCACGTGTCGAG
TAAAGCACGTGAAGGG

Relative binding free energy, -0.16 kcal/mol:
GAGTGCACGTGCTTGT
ATGTGCACGTGGTTAG

Relative binding free energy, 0.08 kcal/mol:
TTTATCACGTGTGTCA
AGGTCCACGTGATTGT
TAGTCCACGTGTTGTT
TATCACACGTGGATGG
ATACGCACGTGTGAAT
GTGAGCACGTGTGAAT

Relative binding free energy, -0.18 kcal/mol:
AGAGGCACGTGTTGCG

Relative binding free energy, 0.16 kcal/mol:
GTACGCACGTGTTTTT
TTTTACACGTGCAGTT
GGTATCACGTGTGCAT
TGGGTCACGTGGTAAC
ACAGACACGTGTGGGA
CATGTCACGTGGAGGT
TATATCACGTGTGTGC
ATTATCACGTGTTTGA

Relative binding free energy, 0.07 kcal/mol:
TAAATCACGTGTTTAT
TGTGGCACGTGATGCG

Relative binding free energy, -0.26 kcal/mol:
AGAGCCACGTGGGGAG

Relative binding free energy, 0.24 kcal/mol:
GGCTTCACGTGCGGTA
GGAATCACGTGCGGTC
CTGTTCACGTGGATTG
TGTTTCACGTGCAGCT
TTTTTCACGTGATAAT

Relative binding free energy, 0.46 kcal/mol:
ATTTTCACGTGAGAGG

Relative binding free energy, 0.04 kcal/mol:
GTGGACACGTGGATGG
ATTTGCACGTGTGGAA
TGCATCACGTGTTAGT
TTGGACACGTGTTTAT
GTCCTCACGTGGGTTG
GGATACACGTGGCGTG

Relative binding free energy, -0.01 kcal/mol:
TAATGCACGTGACGTT
AGGAACACGTGTTATT

Relative binding free energy, 0.23 kcal/mol:
TCGGGCACGTGAGGCG
GGTTTCACGTGGATAT
GGGTTCACGTGCGTGG
AGGGTCACGTGATGCG
GGCTTCACGTGTAGGA
GTGTACACGTGTAAAG
AGGGTCACGTGGTTTT

Relative binding free energy, -0.11 kcal/mol:
TTGAGCACGTGCGGTT
TCTTCCACGTGGGGTG
TAATACACGTGGTGGC

Relative binding free energy, 0.1 kcal/mol:
CGGGTCACGTGGATAT
AGAGACACGTGTATTT
AATCGCACGTGTAGTG

Relative binding free energy, -0.07 kcal/mol:
TTAGGCACGTGGTGAG
GGTGGCACGTGTACTA
TACAGCACGTGTTTGG
TGGGGCACGTGTAGGA
TAGGCCACGTGTAGTG
AGGCGCACGTGTATTT
TGAAACACGTGGTGGA
TAAAGCACGTGGGTTC

Relative binding free energy, 0.03 kcal/mol:
GAGCGCACGTGTTTTT
TGTTGCACGTGCGGTG

Relative binding free energy, -0.25 kcal/mol:
AGGTACACGTGGGGCA
AACGGCACGTGGGTCG

Relative binding free energy, 0.12 kcal/mol:
TAAGACACGTGGTAAT
TTAGACACGTGAGGTA
ATTAGCACGTGATTCG
TTCGACACGTGTTGTA

Relative binding free energy, 0 kcal/mol:
TGGAACACGTGGCGAG
TTTTGCACGTGGTAAC
GTTGACACGTGTAGGT
TTTGTCACGTGCTGCT
TTGTCCACGTGCGGGG
GAGGTCACGTGGCGAG
GAGGCCACGTGGATGT
CTGGACACGTGCGGTG
TTTGGCACGTGTGTGA

Relative binding free energy, -0.09 kcal/mol:
TATAGCACGTGGCTTA
CTTGGCACGTGATGTA
GGCAACACGTGGTGGT
TCATGCACGTGGTGAG

Relative binding free energy, 0.11 kcal/mol:
TATTACACGTGTTTGC
TGGTCCACGTGTAATT
CGGTACACGTGTGGTT
TTGCACACGTGGTAGA
TAAGTCACGTGCGGAT
ATTGTCACGTGACGTA

Relative binding free energy, -0.1 kcal/mol:
TTGGCCACGTGGGCAG
TGAAGCACGTGCGGGG
TATGGCACGTGGGATT
GTGGCCACGTGCGGGG

Relative binding free energy, 0.39 kcal/mol:
CATTTCACGTGCGTTG
GACTTCACGTGTGGTA
TTGTTCACGTGAAAGG

Relative binding free energy, -0.13 kcal/mol:
GCAGACACGTGGGGGA
TGAGGCACGTGCGTGA
TCGTGCACGTGCGTGA
GTGAGCACGTGCAGGA

Relative binding free energy, -0.28 kcal/mol:
AAAGGCACGTGGGCAG

Relative binding free energy, 0.21 kcal/mol:
AAGTTCACGTGGGCTT
GGAATCACGTGTTTAT
GTTCTCACGTGTGCTT
AGATTCACGTGGGGTT
CGGGACACGTGATAGT

Relative binding free energy, 0.09 kcal/mol:
TATGTCACGTGTCAGG
CGTGTCACGTGGGAGA
ATCGGCACGTGAGGTG
GGATGCACGTGTGCGT
GCTGTCACGTGGAGGG
TGTGTCACGTGTTAAC
TGGGTCACGTGGTGGC
TGGATCACGTGGGGGT

Relative binding free energy, 0.22 kcal/mol:
GTGCGCACGTGAAGTT

Relative binding free energy, 0.59 kcal/mol:
GGGTTCACGTGATGAG

Relative binding free energy, -0.32 kcal/mol:
TGTGGCACGTGGGCCA

Relative binding free energy, 0.18 kcal/mol:
CGTGACACGTGGATGG
TCGATCACGTGTGTGT
ATTCTCACGTGCGTTT
TAAATCACGTGGTGGA
AGCGGCACGTGAGAGT
GTGGTCACGTGCTGGA

Relative binding free energy, 0.38 kcal/mol:
CGAGTCACGTGAGATG
TGGTTCACGTGATTGA

Relative binding free energy, 0.14 kcal/mol:
GTTATCACGTGGGTAT

Relative binding free energy, 0.3 kcal/mol:
CAGGTCACGTGTAGCG
